Laboratory results published in patent US20240132593A1 (KINETA, published 2024).

B1: Antibody No. 91 (antibody, human IgG1, kappa)
heavy: QVQLQESGPGLVKPSETLSLTCTVSGGSISSYYWSWIRQPPGKGLEWIGYIYYSGSTNYNPSLKSRVTISVDTSKSQFSLKLSSVTAADTAVYYCASDIPAFAFDIWGQGTMVIVSS[human IgG1 constant region not listed]
light: EIVLTQSPATLSLSPGERATLSCRASQSVSYYLAWYQQKPGQAPRLLIYDAFNRATGIPARFSGSGSGTDFTLTISSLEPEDFAVYYCQQRINWPLTFGGGTKVEIKRTVAAPSVFIFPPSDEQLKSGTASVVCLLNNFYPREAKVQWKVDNALQSGNSQESVTEQDSKDSTYSLSSTLTLSKADYEKHKVYACEVTHQGLSSPVTKSFNRGEC
notes: human IgG1 constant region in the entry; also called Ab No. 91
B2: Antibody No. 245.1 (antibody, human IgG1, kappa)
heavy: QVQLQESGPGLVKPSETLSLTCTVSGGSISSYYWSWIRQPPGKGLEWIGYIYYSGSTNYNPSLKSRVTISVDTSKSQFSLKLSSVTAADTAVYYCARDIPAFAFDIWGQGTMVIVSSA[human IgG1 constant region not listed]
light: B1 light
notes: Human IgG1, kappa
B3: Antibody No. 173.1 (antibody, human IgG1, kappa)
heavy: QLQLQESGPGLVKPSETLSLTCIVSGGSISSSGYYWGWIRQPPGKGLEWIGSIFYSGNTHYNPSLKSRVTIPVDTSKNQFSLKLSSVTAADSAVYYCARRDILTGPFDYWGQGTLVTVSSA[human IgG1 constant region not listed]
light: DIQMTQSPSSLSASVGDRVTITCQASQDITNYLTWYQQKPGNAPKLLIYDASNLETGVPSRFSGSGSGTDFTFTINSLQPEDVATYFCQQYDNLPTFGGGTKVEIKRTVAAPSVFIFPPSDEQLKSGTASVVCLLNNFYPREAKVQWKVDNALQSGNSQESVTEQDSKDSTYSLSSTLTLSKADYEKHKVYACEVTHQGLSSPVTKSFNRGEC
notes: Human IgG1, kappa
B4: Antibody No. 245.1 (antibody, human IgG1, kappa)
heavy: B2 heavy
light: B1 light
B5: Antibody No. 173.1 (antibody, human IgG1, kappa)
heavy: B3 heavy
light: B3 light
notes: human IgG1

Tests used:
[1] = biological target: 3xN-VISTA-ECD-Fc (human); assay: ELISA on plate-bound VISTA-ECD-Fc
[2] = biological target: T1, His-tagged recombinant mouse VISTA-ECD (Met 1 to Ala 194) (mouse, UniProt Q9D659 33-194); assay: ELISA endpoint, His-VISTA on plate, mAb at 23 µg/mL
T1 construct: Bought (Sino Biological); not shown: His tag
T1 sequence: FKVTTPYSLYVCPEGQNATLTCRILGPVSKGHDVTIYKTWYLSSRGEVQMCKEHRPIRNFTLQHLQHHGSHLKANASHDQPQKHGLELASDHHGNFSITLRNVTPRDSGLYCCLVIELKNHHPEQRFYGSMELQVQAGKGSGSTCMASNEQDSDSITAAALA

[3] = biological target: T2, RFQ-VISTA-ECD-Fc (human); assay: ELISA, 10 ug/mL antibody on plate-bound mutant VISTA-Fc
T2 construct: also called hVISTA ECD-Fc R54A, F62A, Q63A; human VISTA-Fc 54A62A63A

Binder	endpoint absorbance (450 nm) [2]	ELISA Abs 450 nm [3]	also measured
B1			EC50 [1]: 0.2 µg/mL
B2	0.075		
B3	0.079		
B4		1.48 Abs 450 nm	
B5		1.66 Abs 450 nm	
